The target of one assay is T1, Myc-Nde1 (mouse) (UniProt Q9CZA6).
T1 sequence: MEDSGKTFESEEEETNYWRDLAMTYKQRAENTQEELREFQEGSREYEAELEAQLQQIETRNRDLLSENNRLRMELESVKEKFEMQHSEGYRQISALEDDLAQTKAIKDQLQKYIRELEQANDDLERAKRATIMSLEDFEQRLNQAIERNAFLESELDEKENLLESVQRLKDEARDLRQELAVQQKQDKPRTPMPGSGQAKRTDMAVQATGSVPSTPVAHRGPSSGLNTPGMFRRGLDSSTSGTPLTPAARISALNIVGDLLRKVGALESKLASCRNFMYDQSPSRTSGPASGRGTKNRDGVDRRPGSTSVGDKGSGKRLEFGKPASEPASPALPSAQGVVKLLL
The assay can be described thus: co-IP; Myc-Nde1 transfected in 293T, immunoprecipitated by anti-myc 9E10 (mouse IgG as control), endogenous partners by immunoblotting; 25 mM HEPES, 150 mM NaCl, 10 mM NaF, 100 uM Na3VO4, 0.5% NP40, 10% glycerol, protease inhibitors, 1 mM ATP. (A western blot detects proteins with antibodies after separation by electrophoresis.)

For assay [1], the target named is T2, Flag-NBD of SMC3 (Nde1 binding domain of Smc3) (UniProt Q9CW03).
T2 sequence: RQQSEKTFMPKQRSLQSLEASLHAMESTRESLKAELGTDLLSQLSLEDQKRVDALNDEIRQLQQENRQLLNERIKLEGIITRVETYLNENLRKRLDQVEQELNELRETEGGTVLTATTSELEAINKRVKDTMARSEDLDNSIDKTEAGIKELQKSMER
Description: co-IP; Flag-NBD of SMC3 co-transfected with GFP-Nde1 in 293T, immunoprecipitated by the Flag antibody (mouse IgG as control), immunoblotting; 25 mM HEPES, 150 mM NaCl, 10 mM NaF, 100 uM Na3VO4, 0.5% NP40, 10% glycerol, protease inhibitors, 1 mM ATP.

Assay [2] deals with T3, Nde1 (bait of the yeast two-hybrid screen) (mouse) (UniProt Q9CZA6).
T3 sequence: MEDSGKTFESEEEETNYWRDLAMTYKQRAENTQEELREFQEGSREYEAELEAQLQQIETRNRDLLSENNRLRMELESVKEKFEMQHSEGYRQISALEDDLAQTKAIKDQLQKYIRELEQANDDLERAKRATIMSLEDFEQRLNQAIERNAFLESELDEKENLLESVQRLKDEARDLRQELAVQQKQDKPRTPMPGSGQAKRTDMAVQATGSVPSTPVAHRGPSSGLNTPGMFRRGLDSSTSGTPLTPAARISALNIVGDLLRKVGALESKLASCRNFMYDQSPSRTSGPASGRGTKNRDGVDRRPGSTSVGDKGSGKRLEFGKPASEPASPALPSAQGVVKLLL
Description: two-hybrid; yeast two-hybrid screen with Nde1 as bait.

Results are given in words; binding and its absence hold for the method and conditions named. For part of these data: Binding seen in cells or lysates may run through a third protein. Some binding calls cover weakened binding; strength is not graded here. For part of these data: Sequences can lack the tags named with a protein.

B1: RAD21, endogenous (protein, UniProt O60216 1-631)
chain: MFYAHFVLSKRGPLAKIWLAAHWDKKLTKAHVFECNLESSVESIISPKVKMALRTSGHLLLGVVRIYHRKAKYLLADCNEAFIKIKMAFRPGVVDLPEENREAAYNAITLPEEFHDFDQPLPDLDDIDVAQQFSLNQSRVEEITMREEVGNISILQENDFGDFGMDDREIMREGSAFEDDDMLVSTTTSNLLLESEQSTSNLNEKINHLEYEDQYKDDNFGEGNDGGILDDKLISNNDGGIFDDPPALSEAGVMLPEQPAHDDMDEDDNVSMGGPDSPDSVDPVEPMPTMTDQTTLVPNEEEAFALEPIDITVKETKAKRKRKLIVDSVKELDSKTIRAQLSDYSDIVTTLDLAPPTKKLMMWKETGGVEKLFSLPAQPLWNNRLLKLFTRCLTPLVPEDLRKRRKGGEADNLDEFLKEFENPEVPREDQQQQHQQRDVIDEPIIEEPSRLQESVMEASRTNIDESAMPPPPPQGVKRKAGQIDPEPVMPPQQVEQMEIPPVELPPEEPPNICQLIPELELLPEKEKEKEKEKEDDEEEEDEDASGGDQDQEERRWNKRTQQMLHGLQRALAKTGAESISLLELCRNTNRKQAAAKFYSFLVLKKQQAIELTQEEPYSDIIATPGPRFHII
For B1, in the assay with Myc-Nde1 (mouse), the binding entry is “binds”.

B2: GFP-Nde1 (protein, UniProt Q9CZA6 1-344)
chain: MEDSGKTFESEEEETNYWRDLAMTYKQRAENTQEELREFQEGSREYEAELEAQLQQIETRNRDLLSENNRLRMELESVKEKFEMQHSEGYRQISALEDDLAQTKAIKDQLQKYIRELEQANDDLERAKRATIMSLEDFEQRLNQAIERNAFLESELDEKENLLESVQRLKDEARDLRQELAVQQKQDKPRTPMPGSGQAKRTDMAVQATGSVPSTPVAHRGPSSGLNTPGMFRRGLDSSTSGTPLTPAARISALNIVGDLLRKVGALESKLASCRNFMYDQSPSRTSGPASGRGTKNRDGVDRRPGSTSVGDKGSGKRLEFGKPASEPASPALPSAQGVVKLLL
For B2, the binding entry in assay [1] is given as “binds”.

B3: SMC3 fragment recovered from the Nde1 yeast two-hybrid screen (domain or fragment, UniProt Q9CW03 746-903)
chain: RQQSEKTFMPKQRSLQSLEASLHAMESTRESLKAELGTDLLSQLSLEDQKRVDALNDEIRQLQQENRQLLNERIKLEGIITRVETYLNENLRKRLDQVEQELNELRETEGGTVLTATTSELEAINKRVKDTMARSEDLDNSIDKTEAGIKELQKSMER
Turning to B3, the binding result in assay [2] is on record as “binds”.

Source of the values: article PMC4170211.
